The list shows a part of the results.
What was measured:
[1] = test system: HSkMC (human skeletal muscle cells); experiment: cytotoxicity call (relative viability < 0.9); conditions: 10 µM
[2] = test system: HepG2; experiment: cytotoxicity call (relative viability < 0.9); conditions: 10 µM
[3] = test system: S. aureus RN4220; experiment: growth inhibition call (relative growth <= 0.2); conditions: 50 µM

| Structure (SMILES) | cytotoxicity call [1] | cytotoxicity call [2] | growth inhibition call [3] |
| --- | --- | --- | --- |
| CC(C)NC(=O)N(C)C[C@@H]1Oc2ccc(NS(=O)(=O)c3ccccc3)cc2C(=O)N([C@H](C)CO)C[C@@H]1C | inactive | inactive | inactive |
| C[C@@H]1CN([C@@H](C)CO)S(=O)(=O)c2ccc(C#Cc3cccc(F)c3)cc2O[C@@H]1CN(C)C(=O)CN1CCOCC1 | inactive | inactive | inactive |
| O=C(C=Cc1ccc(O)c(O)c1)C=C(O)C=Cc1ccc(O)c(O)c1 | inactive | active | inactive |
| CC(C)NC(=O)N(C)C[C@@H]1Oc2cc(C#Cc3ccccn3)ccc2S(=O)(=O)N([C@H](C)CO)C[C@H]1C | inactive | inactive | inactive |
| COc1ccc(NC(=O)Nc2ccc3c(c2)C(=O)N([C@@H](C)CO)C[C@H](C)[C@@H](CN(C)C(=O)c2ccccc2)OCCCC[C@H](C)O3)cc1 | inactive | inactive | inactive |
| C[C@@H]1CN([C@@H](C)CO)C(=O)c2cc(NS(=O)(=O)c3ccccc3)ccc2O[C@@H](C)CCCCO[C@@H]1CN(C)C(=O)Nc1ccc(F)cc1 | inactive | inactive | inactive |
| Nc1nc(=O)n([C@H]2C[C@H](O)[C@@H](CO)O2)cc1O | inactive | inactive | inactive |
| C[C@H](CO)N1C[C@H](C)[C@H](CN(C)C(=O)Nc2ccc3c(c2)OCO3)OCCCC[C@H](C)Oc2ccc(NS(=O)(=O)c3ccc(F)cc3)cc2C1=O | inactive | inactive | inactive |
| COc1ccc(S(=O)(=O)N(C)C[C@@H]2Oc3ccc(NS(=O)(=O)c4ccccc4)cc3CC(=O)N([C@@H](C)CO)C[C@H]2C)cc1 | inactive | active | inactive |
| C[C@H]1CN([C@@H](C)CO)C(=O)c2cccc(NS(=O)(=O)c3cccs3)c2O[C@H]1CN(C)Cc1ccc(-c2ccccc2)cc1 | inactive | inactive | inactive |
| C[C@@H]1CN([C@@H](C)CO)C(=O)c2cc(NS(=O)(=O)c3ccccc3)ccc2O[C@H]1CN(C)S(=O)(=O)c1cn(C)cn1 | inactive | inactive | inactive |
| O=C1CN(S(=O)(=O)Cc2ccccc2)C[C@H]2[C@@H](c3ccc(C#Cc4cccc(F)c4)cc3)[C@H](CO)N12 | inactive | active | inactive |
| CC(C)NC(=O)Nc1ccc2c(c1)C(=O)N([C@@H](C)CO)C[C@@H](C)[C@@H](CN(C)S(=O)(=O)c1ccccc1)O2 | inactive | inactive | inactive |
| C[C@@H]1CN([C@H](C)CO)C(=O)Cc2cc(NS(=O)(=O)c3ccc(Cl)cc3)ccc2O[C@@H]1CN(C)C(=O)Nc1cccc2ccccc12 | inactive | inactive | inactive |
| C[C@@H]1CN([C@@H](C)CO)C(=O)Cc2cc(NS(=O)(=O)c3ccccc3)ccc2O[C@H]1CN(C)CC1CC1 | inactive | inactive | inactive |
| Cc1noc(C)c1S(=O)(=O)N(C)C[C@@H]1Oc2c(NC(=O)C3CCCCC3)cccc2C(=O)N([C@@H](C)CO)C[C@@H]1C | inactive | inactive | inactive |
| C[C@H]1CN([C@@H](C)CO)C(=O)c2cc(NC(=O)c3ccncc3)ccc2O[C@H]1CN(C)C(=O)Nc1ccc2c(c1)OCO2 | inactive | inactive | inactive |
| Cc1ccc(S(=O)(=O)N(C)C[C@@H]2Oc3c(NS(=O)(=O)c4ccc(F)cc4)cccc3C(=O)N([C@@H](C)CO)C[C@@H]2C)cc1 | inactive | inactive | inactive |
| Nc1ncnc2c1ncn2C1OC(CO)C(O)C1O (stereo unspecified) | inactive | inactive | inactive |
| C[C@@H]1CN([C@H](C)CO)C(=O)c2cc(NC(=O)Nc3ccc(C(F)(F)F)cc3)ccc2O[C@@H]1CN(C)C(=O)Nc1ccccc1 | inactive | inactive | inactive |
| C[N+](C)(C)CCCCNC(=O)[C@H]1C[C@H]2C(=O)N3CCC[C@H]3C(=O)N2[C@H]1c1cccc(OCCO)c1 | inactive | active | inactive |
| C[C@@H]1CN([C@@H](C)CO)C(=O)c2cccc(NC(=O)c3ccc(-c4nccs4)cc3)c2O[C@H]1CN(C)C(=O)Nc1ccc(C(F)(F)F)cc1 | inactive | inactive | inactive |
| C[C@@H]1CCCCO[C@H](CN(C)Cc2ccc(Cl)c(Cl)c2)[C@@H](C)CN([C@H](C)CO)C(=O)c2cc(NC(=O)Cc3ccccc3)ccc2O1 | inactive | active | inactive |
| O=C(O)C[C@H]1C=C[C@@H](NC(=O)c2ccncc2)[C@H](CO)O1 | inactive | inactive | inactive |
| COc1ccc(OCc2c(-c3ccccc3)nnn2CC(=O)NS(=O)(=O)c2ccc(F)cc2F)cc1 | inactive | inactive | inactive |
| Cc1ccc(S(=O)(=O)N(C)C[C@@H]2Oc3ncc(C#CC4(O)CCCC4)cc3C(=O)N([C@@H](C)CO)C[C@H]2C)cc1 | inactive | inactive | inactive |

| Structure (SMILES) | cytotoxicity call [1] | cytotoxicity call [2] | growth inhibition call [3] |
| --- | --- | --- | --- |
| COc1ccc(NC(=O)Nc2ccc3c(c2)C(=O)N([C@@H](C)CO)C[C@H](C)[C@H](CN(C)Cc2ccc(C(F)(F)F)cc2)OCCCC[C@H](C)O3)cc1 | inactive | active | inactive |
| C[C@@H]1CN([C@@H](C)CO)C(=O)Cc2cc(NC(=O)c3ccncc3)ccc2O[C@H]1CN(C)Cc1ccc2c(c1)OCO2 | inactive | inactive | inactive |
| C[C@H](CO)N1C[C@H](C)[C@H](CN(C)S(=O)(=O)c2cn(C)cn2)Oc2ccc(NC(=O)CCN3CCOCC3)cc2CC1=O | inactive | inactive | inactive |
| C[C@@H]1CCCCO[C@@H](CN(C)S(=O)(=O)c2ccc(Cl)cc2)[C@@H](C)CN([C@@H](C)CO)C(=O)c2cc(NC(=O)NC3CCCCC3)ccc2O1 | inactive | active | inactive |
| C[C@H]1CN([C@@H](C)CO)C(=O)c2cc(NC(=O)NC3CCCCC3)ccc2O[C@H]1CN(C)Cc1ccc(Oc2ccccc2)cc1 | inactive | inactive | inactive |
| C[C@H]1CN([C@@H](C)CO)C(=O)CCCn2cc(nn2)CO[C@H]1CN(C)S(=O)(=O)c1ccc(Oc2ccccc2)nc1 | inactive | inactive | inactive |
| C[C@@H]1CN([C@@H](C)CO)C(=O)c2cc(-c3ccc(C(=O)N(C)C)cc3)cnc2O[C@@H]1CN(C)C(=O)c1cccnc1 | inactive | inactive | inactive |
| Cc1ccc(S(=O)(=O)N(C)C[C@H]2OCCCC[C@H](C)Oc3ccc(NC(=O)c4ccccc4)cc3C(=O)N([C@H](C)CO)C[C@@H]2C)cc1 | inactive | inactive | inactive |
| COc1ccc(S(=O)(=O)N(C)C[C@@H]2Oc3ccc(NC(=O)Cn4cnnn4)cc3C(=O)N([C@@H](C)CO)C[C@H]2C)cc1 | inactive | inactive | inactive |
| C[C@@H]1CN([C@H](C)CO)C(=O)c2cc(NC(=O)Nc3ccc(F)cc3)ccc2O[C@@H](C)CCCCO[C@H]1CN(C)C(=O)C1CCCCC1 | inactive | inactive | inactive |
| C[C@H](CO)N1C[C@H](C)[C@H](CN(C)C(=O)Nc2ccc(F)cc2)Oc2ncc(C#Cc3ccc(C(F)(F)F)cc3)cc2C1=O | inactive | inactive | inactive |
| C[C@H]1CN([C@@H](C)CO)C(=O)CCCn2nncc2CO[C@@H]1CN(C)S(=O)(=O)c1ccc(-c2ccccc2)cc1 | inactive | inactive | inactive |
| C[C@H](CO)N1C[C@H](C)[C@@H](CN(C)Cc2ccc(C(F)(F)F)cc2)OCCCC[C@H](C)Oc2ccc(NC(=O)c3ccncc3)cc2C1=O | inactive | inactive | inactive |
| Nc1ccc(/C=C/C(=O)NCc2cc3cc(-c4ccc(C(=O)N5CCC(F)(F)CC5)cc4)cc(-c4ccc(F)cc4)c3o2)cn1 | active | active | inactive |
| C[C@@H]1CN([C@H](C)CO)C(=O)c2cccc(NC(=O)c3ccc(-c4nccs4)cc3)c2O[C@H]1CN(C)C(=O)Nc1ccc(C(F)(F)F)cc1 | inactive | inactive | inactive |
| COc1ccc(S(=O)(=O)Nc2ccc3c(c2)C(=O)N([C@H](C)CO)C[C@@H](C)[C@H](CN(C)Cc2ccc(C(F)(F)F)cc2)OCCCC[C@@H](C)O3)cc1 | inactive | active | inactive |
| C[C@@H]1CCCCO[C@@H](CN(C)C(=O)Nc2ccccc2)[C@H](C)CN([C@H](C)CO)C(=O)c2cc(NC(=O)CCC(F)(F)F)ccc2O1 | inactive | inactive | inactive |
| C[C@@H]1CCCCO[C@H](CN(C)C(=O)Cc2ccccc2)[C@@H](C)CN([C@H](C)CO)C(=O)c2cc(NC(=O)C3CCCCC3)ccc2O1 | inactive | inactive | inactive |
| Cc1nn(C)c(C)c1CN | inactive | inactive | inactive |
| COc1ccc2c3c([nH]c2c1)[C@H](CO)N(C[C@]13CCN(CC1)Cc1ccccc1OC)C(=O)Nc1ccc(cc1)F | inactive | inactive | inactive |
| C[C@@H]1CN([C@H](C)CO)C(=O)c2cccc(NS(=O)(=O)c3cn(C)cn3)c2O[C@@H]1CN(C)C(=O)Nc1ccccc1 | inactive | inactive | inactive |
| NC1=NC(=O)[C@@H]2N=C(Br)N([C@H]3O[C@H]4COP(=O)(O)O[C@@H]4[C@@H]3O)[C@H]2N1 | inactive | inactive | inactive |
| NC[C@H]1O[C@H](O[C@H]2[C@H](O[C@@H]3O[C@H](CO)[C@@H](O)[C@H]3O)[C@@H](O)[C@H](N)C[C@@H]2N)[C@H](N)[C@@H](O)[C@@H]1O | inactive | inactive | inactive |
| Cn1cnc(S(=O)(=O)N[C@@H]2CC[C@@H](CC(=O)Nc3ccccc3)O[C@H]2CO)c1 | inactive | inactive | inactive |
| COc1ccc(S(=O)(=O)N(C)C[C@H]2Oc3c(NC(=O)c4cnccn4)cccc3C(=O)N([C@H](C)CO)C[C@@H]2C)cc1 | inactive | inactive | inactive |
| Cc1noc(C)c1NC(=O)N(C)C[C@@H]1Oc2ccc(NC(=O)Nc3cccc4ccccc34)cc2CC(=O)N([C@@H](C)CO)C[C@@H]1C | inactive | inactive | inactive |

Source: the antibiotic and cytotoxicity screens of Wong et al. (2023)
